Survival data for 89 molecules are collected here from PubChem BioAssay AID463173 (ICCB-Longwood Screening Facility, Harvard Medical School, 2010).

The campaign covered roughly 52,000 compounds. About 4,300 (8.3%) were called active. Cut-off read from the data, not from the text of the source: active = survival mostly below about 52% (no sharp cut-off); inactive = mostly above about 56%. The list shows a part of the results.

The subject of the test is DeltatarO mutant. Put plainly: growth inhibition of S. aureus wild type versus tarO mutant, primary screen, teichoic acid synthesis inhibitors, RN4220, OD600 (AID 463173). Particulars: OD600, 18 h, active compounds read low, screened at 18.75 µg/mL (by protocol).
On to `Cc1ccc(-c2cc(C(F)(F)F)n3nc(-c4cccc(Br)c4)cc3n2)cc1`, for which the survival was active: 46%.

In the case of `CCN1CCc2c(sc(NC(=O)c3ccc(S(=O)(=O)N(C)C4CCCCC4)cc3)c2C(N)=O)C1`, the survival was inactive: 80%. Consider `N#CSC1CC(=O)N(c2ccc(F)cc2)C1=O` (centres undefined), for which the survival is inactive: 81%. Take `CC1Cc2cc(S(=O)(=O)CCC(=O)Nc3ccc(F)cc3)ccc2N1C(=O)C1CC1` (centres undefined): the survival was inactive: 101%. In the case of `CSc1ccc(CNC(=O)Cn2c(-c3cccs3)cc3cc(F)ccc32)cc1`, the survival was inactive: 101%. For `O=C(/C=C\c1ccc2c(c1)OCO2)NC1CC(=O)N(c2ccccc2)C1` (centres undefined), the survival was inactive: 134%.

On to `CC1CNc2ccccc2NC1=O` (centres undefined), for which the survival is inactive: 85%. For the molecule `CCCCc1ccc(Nc2cc(C)nc(-n3nc(C)cc3C)n2)cc1`, the survival was inactive: 79%.

On to `O=C(Nc1ccc(-c2nc3ccccc3o2)c(O)c1)c1cc(Cl)ccc1Cl`, for which the survival was inactive: 50%. The figure for `COc1cc(OC)cc(C(=O)Nc2ccc3nc4c(c(Nc5ccc(OC)c(OC)c5)c3c2)CCCC4)c1` is inactive: 122%. For the molecule `O=C(NCC(c1cccnc1)N1CCc2ccccc2C1)C(=O)Nc1ccccc1F` (centres undefined), the survival is inactive: 75%.

With `CCN(C(=O)CCS(=O)(=O)c1ccc2c(c1)CCN2C(C)=O)c1cccc(C(F)(F)F)c1`, the survival is inactive: 101%. As for `Cc1ccc(/C=C/c2onc(C)c2S(=O)(=O)N2CCC(C(=O)Nc3ccc(OC(F)(F)F)cc3)CC2)cc1`, the survival is inactive: 125%.

Regarding `COC(=O)c1ccc(NC(=O)Cn2ccn3nc(-c4ccc(OC)cc4)cc3c2=O)cc1`, the survival was inactive: 94%.

As to `Cc1ccc(CNC(=O)CCc2c(C)nc3c(-c4ccc(F)cc4)c(C)nn3c2C)cc1`, the survival is inactive: 83%. Turning to `CCCN(CCC)C(=O)Cn1c(=O)n(CCCCCC(=O)Nc2ccccc2)c(=O)c2sccc21`, the survival was inactive: 71%. Turning to `COc1ccc2c(c1)c1c(c(=O)n(-c3ccccc3C)c(=O)n1CC(N)=O)n2C`, the survival is inactive: 89%. Consider `Cc1nnc(C)n1/N=C/C=C/c1ccccc1`, for which the survival was inactive: 62%. Take `CCc1ccc2[nH]c(=O)c(CN(Cc3ccco3)C(=O)Nc3ccccc3)cc2c1`: the survival is inactive: 45%. Turning to `Cc1cccc(OCC(=O)Nc2cccc(C(=O)OCc3cc(=O)n4nc(C(C)C)sc4n3)c2)c1`, the survival is inactive: 89%. As to `Cc1ccc(S(=O)(=O)Nc2cc3c(C(=O)OCc4ccccc4)c(C)oc3c3ccccc23)c(C)c1`, the survival was inactive: 56%. The figure for `COc1cc(C(=O)N2CCNC(=O)C2CC(=O)Nc2ccc(C)c(C)c2)cc(OC)c1OC` (centres undefined) is inactive: 92%; for `Clc1cccc(CNNc2nc(N3CCCCC3)nc(N3CCCCC3)n2)c1` it is inactive: 98%.

`CCCCNc1nc2c(-c3cccc(C)c3)nnn2c2ccccc12`: the survival was inactive: 98%. The figure for `Cc1ccc(S(=O)(=O)C(CNC(=O)COc2ccccc2)c2cccs2)cc1` (centres undefined) is inactive: 67%. In the case of `COC(=O)C1=C(C)NC(=O)NC1c1cn(-c2ccccc2)nc1-c1ccc(OC)c(Br)c1` (centres undefined), the survival was inactive: 53%.

Take `CCCn1c(COc2cccc(C)c2)nc2ccccc21`: the survival was active: 12%.

As for `O=c1oc2cc(O)ccc2cc1-c1nc(-c2ccc(Cl)c(Cl)c2)cs1`, the survival was inactive: 101%. The figure for `COc1cccc(-n2c(SCC(=O)c3ccccc3)nc3c([nH]c4ccccc43)c2=O)c1` is inactive: 124%; for `CCc1sc(Nc2cccc(Cl)c2)nc1-c1cc2cccc(OC)c2oc1=O` it is inactive: 90%. Regarding `O=C(/C=C/c1cccs1)NC1CCS(=O)(=O)C1` (centres undefined), the survival is inactive: 91%.

Regarding `Cc1c(C(=O)OCc2ccccc2)[nH]c2c1C(=O)CC(c1ccc(N(C)C)cc1)C2` (centres undefined), the survival was inactive: 82%.

On to `Cc1nn2c3c(cnc2c1-c1ccc(Cl)cc1)C(=O)CC(c1ccc(C(C)C)cc1)C3` (centres undefined), for which the survival is inactive: 85%. As to `COc1ccc(NC(=O)CN2C(=O)C(C)(C)c3cc(S(=O)(=O)N4CCCCC4)ccc32)cc1Cl`, the survival is inactive: 76%. For `Cc1ccc(C2=CC(c3ccccc3C)n3c(nc4ccccc43)N2)cc1` (centres undefined), the survival was inactive: 79%. The result for `CCc1ccc(NC(=O)C(=O)NCCc2csc(-c3cccc(F)c3)n2)cc1` reads inactive: 83%; that for `CCOc1ccc(NC(=O)CSc2oc(-c3cccs3)nc2S(=O)(=O)c2ccc(C)cc2)cc1`, inactive: 125%; that for `CCn1nc(C)c2c(-c3ccccc3)cc(=O)n(C(C)C(=O)Nc3cccc(F)c3)c21` (centres undefined), inactive: 91%. Consider `Cc1nn(-c2ccc(N3CCOCC3)nn2)c(C)c1CCC(=O)NCc1ccccc1`, for which the survival was inactive: 68%.

Turning to `COC(=O)C1CC(C)=CC(C)C1C(=O)O` (centres undefined), the survival is inactive: 67%. In the case of `Cc1cc(C)c(NC(=O)CSc2n[nH]c(-c3ccccc3Cl)n2)c(C)c1`, the survival is inactive: 72%. In the case of `Cc1ccn2c(Nc3ccccc3C)c(-c3ccc(N4CCOCC4)cc3)nc2c1`, the survival is inactive: 89%. As to `C=CCC1Cc2ccccc2C(CC=C)N1` (centres undefined), the survival is inactive: 94%. With `O=C(COc1ccc(Cl)cc1)NCC(c1ccco1)S(=O)(=O)c1ccccc1` (centres undefined), the survival is inactive: 77%.

As to `COc1ccccc1NC(=O)c1sc2nc3c(c(C(F)(F)F)c2c1N)CN(C(C)=O)CC3`, the survival was inactive: 63%.

Regarding `Cc1ccccc1CCNC(=O)c1ccc(NC(=O)N2CC(C)Sc3ccccc32)cc1` (centres undefined), the survival is inactive: 67%. For `COc1ccc(NC(=O)c2cnc(Nc3ccc(C)c(Cl)c3)c3ccccc23)c(OC)c1`, the survival was inactive: 63%. The result for `Cc1cc2ncn(S(=O)(=O)c3ccc(S(=O)(=O)NC4CCCCC4)cc3)c2cc1C` reads inactive: 99%; that for `COc1ccc(CNc2nc(-c3ccc(OC)cc3)cc(C(F)(F)F)n2)cc1`, active: -2%; that for `CCCC(=O)N1CCc2cc(OC)c(OC)cc2C1COc1ccc2c(C)cc(=O)oc2c1` (centres undefined), inactive: 66%. `COc1ccc2c(c1)CC(C(=O)NCCN1CCN(c3ccccc3F)CC1)CO2` (centres undefined): the survival is active: 47%. Consider `CCOc1ccc(NC(=O)Cn2cc(C(=O)c3ccc(CC)cc3)c(=O)c3cc4c(cc32)OCO4)cc1`, for which the survival is inactive: 86%. With `Cc1ccc(Cl)cc1N1CCN(C(=O)c2cnn(C(C)(C)C)c2C2CCN(C(=O)OC(C)(C)C)CC2)CC1`, the survival was inactive: 101%.

On to `CCCSc1ncc(Cl)c(C(=O)Nc2ccc(S(=O)(=O)N3CCC(C)CC3)cc2)n1`, for which the survival is inactive: 52%. The result for `COc1ccc(N2CCN(C(=O)C3CCN(Cc4nc(-c5ccc(Cl)cc5)oc4C)CC3)CC2)cc1` reads inactive: 81%.

Turning to `CN(C)CCNC(=O)CN1N=C(c2ccccc2)CCC1=O`, the survival was inactive: 134%. Consider `C=C(C)Cn1c(=O)c2c(nc3n2CCN3c2cc(C)cc(C)c2)n(C)c1=O`, for which the survival is inactive: 81%. The figure for `COc1cc(C2C(=O)N(C3CCCCCC3)CC(=O)N2Cc2ccccc2)ccc1OC(C)C` (centres undefined) is inactive: 88%. Take `O=C(O)c1noc2c1CCCC2`: the survival was inactive: 91%.

Turning to `COC(=O)c1ccc(NC(=O)CN(Cc2ccccc2)S(=O)(=O)c2ccc(C)cc2)cc1`, the survival was active: 42%. Take `CCN(C(=O)CSc1nc2ccccc2n1Cc1ccc(C(=O)OC)cc1)c1ccccc1`: the survival is inactive: 92%. On to `Cc1ccc2oc(=O)c(S(=O)(=O)c3ccc(F)cc3)cc2c1`, for which the survival was inactive: 96%.

On to `COc1ccc(NC(=O)c2ccco2)cc1NC(=O)c1ccc(C)c(C)c1`, for which the survival is active: 49%. For the molecule `COc1ccc(CCN2C(=O)NC(NC(=O)c3ccccc3OC)(C(F)(F)F)C2=O)cc1OC` (centres undefined), the survival was inactive: 77%. Turning to `CCC(Sc1ncc(S(=O)(=O)c2ccc(C)cc2)c(=O)[nH]1)C(=O)Nc1cc(C)ccc1C` (centres undefined), the survival was inactive: 120%. Regarding `CCc1ccc(NC(=O)CN2CCN(C3CCCCC3)C(=O)C2=O)cc1`, the survival was inactive: 91%. Turning to `Cc1ccc(/C=C(\C#N)C(=O)Nc2ccc(Br)cc2)o1`, the survival was inactive: 76%. `Cn1nnnc1SCCCNCc1cccc(OCc2ccccc2F)c1`: the survival was inactive: 60%.

Regarding `O=C(Nc1c(C(=O)c2ccc(Cl)cc2)oc2ccccc12)c1cc(=O)c2ccccc2o1`, the survival was inactive: 107%.

For the molecule `Clc1ccc(Nc2nc(-c3ccccc3)c3ccccc3n2)c(Cl)c1`, the survival is inactive: 72%. Regarding `COc1ccccc1C(=O)Nc1cccc(OCc2cc(=O)n3c(C)csc3n2)c1`, the survival was active: 44%.

Consider `O=S(=O)(c1cc(Br)c(Br)s1)N1CCN(c2ccccc2)CC1`, for which the survival is inactive: 72%. The result for `O=c1[nH]c(-c2ccccc2)nn1-c1ccc(Br)cc1Br` reads inactive: 102%; that for `Cc1ccc(S(=O)(=O)c2nnn3c2nc(NCc2ccccc2)c2sccc23)cc1`, inactive: 68%; that for `Cc1ccccc1CN1C(=O)c2ccccc2Sc2ccc(C(=O)O)cc21`, inactive: 112%. `CCOc1ccc(NC(=O)CCc2nc3cccnc3n2Cc2ccc(OC)cc2)cc1`: the survival is inactive: 64%.

Regarding `Cc1ccc(CS(=O)Cc2ccc(C(=O)NCc3ccccc3Cl)o2)cc1` (centres undefined), the survival was inactive: 84%. Turning to `Cc1ccc(NC(=O)C2CCCN(c3cnccn3)C2)cc1Cl` (centres undefined), the survival was inactive: 75%. For `Nc1nnc(SCC(=O)Nc2cccc(F)c2)s1`, the survival was inactive: 195%. As for `Cc1ccc(N(CC(=O)NC2CCCC2)C(=O)c2ccc(N3CCCC3)nc2)cc1`, the survival was inactive: 89%. In the case of `Cc1cccc(NC(=O)C2CCN(S(=O)(=O)c3ccc4[nH]c5c(c4c3)CCCCC5)CC2)c1`, the survival was inactive: 78%.

On to `Cc1cc(C)cc(NC(=O)Cn2cc(C(=O)c3ccncc3)c(=O)c3cc(C)c(C)cc32)c1`, for which the survival is inactive: 86%. Regarding `CCc1cccc(C)c1NC(=O)C1CCN(c2nnc(C)c3c(C)n(-c4ccccc4)nc23)CC1`, the survival is inactive: 77%. The figure for `C=CCNCc1cccn1-c1ccccc1` is inactive: 76%; for `CCOC(=O)C(C)C1(O)c2ccccc2-c2ncccc21` (centres undefined) it is inactive: 77%; for `COc1ccc(CNC(=O)C2CCN(S(=O)(=O)c3ccc4nc5c(c(C(=O)O)c4c3)CCCC5)CC2)cc1` it is inactive: 99%. With `COc1cccc(NC(=O)CCSc2nc(-c3ccco3)cc(C(F)(F)F)n2)c1`, the survival is active: 27%. In the case of `COc1ccc(-c2noc(N3CCN(c4ccc(Cl)cc4)CC3)n2)cc1OC`, the survival is inactive: 80%. For the molecule `CCc1nn2c(=O)cc(COC(=O)c3cccc(NC(=O)COc4ccccc4)c3)nc2s1`, the survival was inactive: 83%.
